Experimental data from PubChem BioAssay AID1159614 (National Center for Advancing Translational Sciences (NCATS), 2016).
The campaign covered roughly 45,000 compounds. About 65 (0.1%) were called active. Calls come from the whole dose curve; as a rule, active = well fitted activation curve with a large enough effect; inconclusive = small, poorly fitted or top-dose-only effect; inactive = no such curve, though single readings can be large or run the other way. The list shows a part of the results.

Biological target: Galactocerebrosidase (Homo sapiens) (UniProt P54803)
Sequence of UniProt P54803 (P54803 whole entry, looked up): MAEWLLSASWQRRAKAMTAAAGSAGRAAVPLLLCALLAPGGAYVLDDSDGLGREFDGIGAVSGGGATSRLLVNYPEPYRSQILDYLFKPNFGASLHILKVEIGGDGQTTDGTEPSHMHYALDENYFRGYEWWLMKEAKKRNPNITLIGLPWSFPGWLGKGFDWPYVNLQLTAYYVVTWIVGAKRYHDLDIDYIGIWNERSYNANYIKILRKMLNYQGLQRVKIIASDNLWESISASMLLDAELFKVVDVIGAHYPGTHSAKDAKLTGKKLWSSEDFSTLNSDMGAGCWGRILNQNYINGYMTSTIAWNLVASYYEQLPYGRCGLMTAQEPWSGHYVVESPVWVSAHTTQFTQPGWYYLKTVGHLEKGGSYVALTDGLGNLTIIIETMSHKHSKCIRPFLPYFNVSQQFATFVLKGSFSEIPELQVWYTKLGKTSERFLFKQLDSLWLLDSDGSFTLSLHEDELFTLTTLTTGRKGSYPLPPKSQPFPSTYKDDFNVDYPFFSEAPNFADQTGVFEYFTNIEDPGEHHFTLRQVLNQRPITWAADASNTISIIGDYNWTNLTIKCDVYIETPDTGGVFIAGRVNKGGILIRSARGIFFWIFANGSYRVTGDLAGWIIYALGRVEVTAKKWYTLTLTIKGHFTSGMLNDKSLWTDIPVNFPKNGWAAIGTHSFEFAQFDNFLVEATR
Experiment: A Novel Cell-Based Assay to Identify Small Molecules for B -Galactocerebrosidase; note: 0% is about no effect; nearly all actives have a fitted effect of over 65% in size
Conditions: 145M-Twi-hGALC-G270D cells (Twitcher mouse brain line with human GALC G270D), HMU-beta-Gal fluorescence, 48 h; series mostly up to 57.5 µM; activation: at the top concentration
How it was run: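 Fluorogenic HMU-b-Gal hydrolysis (0.1 mM final, pH 5.2 citrate-phosphate with 1 mg/mL sodium taurocholate; carbonate stop buffer) measures mutant GALC activity after compound treatment of live 145M-Twi Twitcher brain cells stably carrying human GALC-G270D, with wild-type GALC line alongside; activation sought.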

activation, inactive:
Cc1ccc(NC(=O)NCc2cccn2Cc2ccccc2)c(C)c1 -13.7%
CCOc1ccc(NC(=O)c2ccc(F)c(S(=O)(=O)N(CC)Cc3ccccc3)c2)cc1 -13.4%
Cc1cccc(NC(=O)C(=O)NCC(c2cccnc2)N2CCc3ccccc3C2)c1C (stereo unspecified) -12.5%
O=C(CCC1N=C2c3ccccc3N=C(SCc3cccc(F)c3)N2C1=O)NCc1cccs1 (stereo unspecified) -19.5%
CCOC(=O)c1scc(-c2ccc(C)cc2)c1S(=O)(=O)N1CCN(c2ccccc2F)CC1 -13.3%
CCCCc1nn2c(=O)cc(COC(=O)C3CCCCC3)nc2s1 -13.7%
O=C(OOC(=O)c1ccccc1)c1ccccc1 -16.5%
Cc1nc2nc(SCC(=O)NC3CCC(C)CC3)nn2c(C)c1Cc1ccccc1 (stereo unspecified) 13.7%
CCOc1ccc(OCC)c(NC(=O)c2ccc(-c3ccccc3)s2)c1 -26.4%
Nc1cc(=O)[nH]c(N)n1 -18.3%
CCOc1ccc(CCNC(=O)c2sc3ncccc3c2-n2cccc2)cc1OCC -19.7%
COC(=O)c1ccc(-c2nc3cc(NC(C)=O)ccc3o2)cc1 4.76%
COc1ccc(OC)c(NC(=O)c2cc(S(=O)(=O)NCCc3ccc(Cl)cc3)ccc2F)c1 -14.5%
CCC(C)NC(=O)Cn1c(=O)n(-c2ccc(C)c(C)c2)c(=O)c2c3c(sc21)CCCCC3 (stereo unspecified) -16.2%
COc1ccc(-c2nnc(SCC(=O)Nc3ccc(C(C)C)cc3)nc2-c2ccc(OC)c(OC)c2)cc1OC -6.82%
CC(=O)c1cccc(NC(=O)c2cc(-c3ccc(Cl)s3)nc3ccccc23)c1 -6.3%
COc1ccc(NC(=O)CC2C(=O)N(c3cccc(C)c3)C(=O)N2C2CCCCC2)cc1 (stereo unspecified) -20.2%
COc1cccc(C(=O)Nc2ccc(-c3cc(C(F)(F)F)nn3-c3ccccc3)cc2)c1 -24.9%
CC(C)Cc1ccc(S(=O)(=O)Nc2cc3c(cc2N2CCOCC2)n(C)c(=O)c(=O)n3C)cc1 -6.3%
CCOc1ccccc1CNS(=O)(=O)c1ccc2[nH]c(=O)ccc2c1 -21.4%
Cc1ccc(C)c(CN2C(=O)N(c3cc(Cl)ccc3C)S(=O)(=O)c3ccccc32)c1 -1.96%
Cc1ccc(C)c(Cn2c(-c3cccs3)nc3ccccc32)c1 -40%
CC(C)c1ccc(S(=O)(=O)c2nnn3c2nc(N2CCCCC2)c2sccc23)cc1 -4.7%
CCC(C)(Oc1ccc(C2(c3ccc(OC(C)(CC)C(=O)O)cc3)CCCCC2)cc1)C(=O)O (stereo unspecified) -21.2%
CCCCN(C)CCCNC(=O)c1cc(-c2ccc(Br)s2)nc2ccccc12 -13.1%
CCOc1ccc(CCNC(=O)CCCn2nc(C)c3sc4ccccc4c3c2=O)cc1 -11.3%
COc1cccc(Nc2sc(C(=O)c3ccc(F)cc3)c(N)c2C(=O)NCc2ccc(Cl)cc2)c1 -0.887%
Cc1cccc(NC(=O)CCCCCn2c(=O)[nH]c3ccsc3c2=O)c1 -5.31%
CN(Cc1ccccc1)S(=O)(=O)c1cc(Br)cc2c1N(C(=O)C1CC1)CC2 -12.4%
CCC(C(=O)Nc1c(C)cc(C)cc1C)n1c(=O)c(-c2ccccc2NC(C)=O)nc2ccccc21 (stereo unspecified) -20.6%
CCOC(=O)C1CCCN(C(=O)c2cc3c(=O)[nH]c4ccc(C)cc4c3s2)C1 (stereo unspecified) -2.13%
COc1ccc(NC(=O)CSc2nnc(NC(=O)Nc3ccc(OC)cc3)s2)cc1 -14.1%
CCN(CCCNC(=O)CN1N=C(c2ccc(OC)cc2)CCC1=O)c1cccc(C)c1 -34%
Cc1ccc(-c2noc(CNC(=O)c3ccc(Br)o3)n2)cc1 -4.91%
Cc1cccc(N2CCN(C(=O)c3cn(CC(C)C)c(=O)c4c3c3ccccc3n4C)CC2)c1C -6.64%
COc1ccc(-c2ccc(NS(=O)(=O)c3ccc(C(C)=O)cc3)cc2)nn1 -10.6%
COc1cccc(N2CC(NC(=O)CCCc3ccccc3)CC2=O)c1 (stereo unspecified) -15.3%
Cc1ccc(NS(=O)(=O)c2c(C)[nH]c(=O)[nH]c2=O)c(C)c1 -8.82%
CCOc1ccccc1CNC(=O)C1CCN(c2nn3cc(-c4ccc(F)cc4)nc3s2)CC1 6.16%
CCCCCCOc1ccc(C2C(=O)N(C3CCCCC3)CC(=O)N2CCC)cc1 (stereo unspecified) -9.97%
Cc1ccccc1-c1nc2cc(NC(=O)Cc3ccc(Cl)cc3)ccc2o1 -4.05%
Cc1cccc(N2CCN(C(=O)c3cccc(-n4c(C)nc5cccnc54)c3)CC2)c1C -31.1%
COc1ccccc1Cc1nc2ccccc2nc1SCC(=O)N(C)c1ccc(F)cc1 2.72%
Cc1cccc(N2CCN(C(=O)Nc3cn(CC(C)C)c(=O)c4ccccc34)CC2)c1C -26.8%
Cc1nnc(N2CCC(C(=O)NCCc3ccccc3Cl)CC2)c2nn(-c3ccccc3)c(C)c12 -19.2%
Cc1ccc(C(=O)Nc2cc3nn(-c4ccccc4)nc3cc2Cl)c(C)c1 -5.97%
CC(C)c1ccc(CN(Cc2ccco2)c2cnc(S(C)(=O)=O)nc2C(=O)Nc2ccc(F)cc2)cc1 -3.64%
N#C/C(=C\c1ccc(Cl)cc1Cl)c1nc(-c2cccc(Cl)c2)cs1 -3.24%
CCOc1ccccc1N(CC(=O)NCCSc1ccccc1)S(=O)(=O)c1ccccc1 3.81%
CCCCN(C)C(=O)C1CCCN(c2ncnc3onc(C)c23)C1 (stereo unspecified) -39.2%
COc1ccccc1N1CCN(C(=O)Cn2cnc3onc(-c4ccc(F)cc4)c3c2=O)CC1 -29.1%
CCc1nn(CC(=O)NCCCN(CC(C)C)CC(C)C)c(=O)c2cc3sc(C)cc3n12 -14.5%
COc1cccc(N2CC(NC(=O)c3ccco3)CC2=O)c1 (stereo unspecified) -11.7%
COc1ccc(Cn2c(=O)c3oc4ccccc4c3n(Cc3cccc(C(F)(F)F)c3)c2=O)cc1 -7.27%
O=C(c1ccc2c(=O)n(CCc3ccccc3)c(=O)[nH]c2c1)N1CCN(c2ccc(F)cc2)CC1 -22.9%
Cc1nn(-c2ccccc2)c2c1N(CC(=O)N1CCN(c3cccc(Cl)c3)CC1)C(=O)CS2 -11.3%
CCC(C)NC(=O)c1ccc2c(c1)N(Cc1ccccc1)C(=O)c1ccccc1S2 (stereo unspecified) 0.28%
Cc1ccccc1-n1c(SCc2ccc(Cl)cc2)nc2[nH]ncc2c1=O -20.7%
COc1cccc(N2CCN(C(=O)CCc3c(C)nc4c(c3C)c(=O)n(C)c(=O)n4C)CC2)c1 -4.9%
CCN(CC)c1cc2c(cc1F)c(=O)c(S(=O)(=O)c1ccc(OC)cc1)cn2CC -18.8%
CCOc1ccc(CNC(=O)C2CCCN(S(=O)(=O)c3ccc4c(ccn4C)c3)C2)cc1 (stereo unspecified) -17%
